41 molecules from ChEMBL document CHEMBL4888484, “Replenishing the malaria drug discovery pipeline: Screening and hit evaluation of the MMV Hit Generation Library 1 (HGL1) against asexual blood stage Plasmodium falciparum ,using a nano luciferase reporter read-out” (2022) can be followed below.

Hit rate of the full screen: of about 150,000 compounds, about 540 (0.36%) showed an effect of 50% or more. The list shows a part of the results.

The subject of this experiment is Plasmodium falciparum. In words: Primary screen in NF54 nanoGlo assay, in single point, at 2uM, 72h; a lower Z score goes with more inhibition. The class given is functional, Erythrocyte. The conditions noted are these: timepoint 72 hour.
In the case of `CC(C)n1c(=O)n(CC(=O)N[C@@H](C)CCc2ccccc2)c2cc(S(=O)(=O)N3CCCC3)ccc21`, the “% Inhibition” value is recorded as -9% and the Z score was found to be 1.12.
In the case of `CC[C@@H](C(=O)OC)N1CCc2onc(-c3cccc4ccccc34)c2C1`, the “% Inhibition” value was -11% and the Z score is 1.3.
With `Cc1csc(CNC(=O)NC2CCC(O)CC2)n1` (configuration not stated), the “% Inhibition” value is on record as -13% and the Z score worked out at 1.82.
In the same order, the values of `Cc1ccc([C@H]2CN(C(=O)CCc3ccc4c(c3)OCO4)C[C@@H]2N)o1` are -19% and 2.65.
In the same order, the values of `Brc1cc2c(cc1Cn1cc(-c3cnn(Cc4cc5c(cc4Br)OCO5)c3)cn1)OCO2` are 1% and -0.21.
In the case of `CC(C)(O)CN(Cc1cc(Cl)c2c(c1)OCCO2)C1CCOCC1`, the “% Inhibition” value is listed as -5% and the Z score was determined as 0.82.
The corresponding values for `CC1(C(=O)O)CCN(C2CCc3ccc(F)cc32)C1` (configuration not stated) are -42% and 4.98.
Regarding `CCn1ccnc1CN(Cc1ccccc1OC)C1CCCC1`, the “% Inhibition” value was found to be 5% and the Z score is reported as -0.91.
The corresponding values for `Cc1c(CNC2CCOC(C)C2)n(C)c2ccccc12` (configuration not stated) are -11% and 1.54.
The corresponding values for `CC1(C)C[C@@H](NC(=O)c2cc3[nH]cnc3cc2F)CCO1` are 31% and -4.43.
The corresponding values for `Cc1cnc(C2CN(C(=O)C3CCCC3)C2)n1CC1CC1` are -12% and 1.6.
For `O=C1CN(C(=O)c2ccc(-c3ccccc3F)o2)c2ccccc2N1`, the “% Inhibition” value is recorded as 31% and the Z score is on record as -4.11.
The corresponding values for `Fc1ccccc1-c1cnnc(N2CC[C@H](c3cccc(Cl)c3)C2)n1` are -5% and 0.66.
The corresponding values for `CCc1ncsc1C(=O)N(C)[C@@H]1CCC[C@H]1O` are 31% and -4.43.
Regarding `CC[C@H]1C[C@@H](NC(=O)c2ccccc2)C[C@@H](c2ccc3nonc3c2)O1`, the “% Inhibition” value was -10% and the Z score came out at 1.77.
The corresponding values for `CCNC(=O)NCCc1ncc(C)n1C1CC1` are -5% and 0.87.
`O=C(C1CC(=O)N(C2CCS(=O)(=O)C2)C1)N(Cc1ccccc1)Cc1ccccc1` (configuration not stated): the “% Inhibition” value was 1% and the Z score was -0.06.
The corresponding values for `CCNc1nc(C)c(C(=O)NCc2ccc3c(c2)CC(C)(C)O3)s1` are -17% and 2.82.
In the same order, the values of `Cc1cc(C)c(NC(=O)[C@@H]2CCCN2S(=O)(=O)c2cc3c(cc2C)NC(=O)CO3)c(C)c1` are -10% and 1.98.
In the same order, the values of `CCCn1cnnc1CN(C)[C@@H](C)C(=O)NC1CCCC1` are -3% and 0.51.
Take `C[C@H](N)COc1ccc(C(C)(C)C)cc1`: the “% Inhibition” value came to 6% and the Z score is -1.21.
The corresponding values for `Cc1cc(C)c(S(=O)(=O)N2CCCC(C(=O)NCC3CCCO3)C2)c(C)c1` (configuration not stated) are -41% and 4.75.
Take `CC1(C)C[C@@H](O)CCN(S(=O)(=O)CC2CC2)C1`: the “% Inhibition” value is -6% and the Z score is 0.65.
The corresponding values for `COCCN1C(=O)[C@H]2[C@H]([C@H](O)c3ccc(Cl)cc3)N[C@@]3(C(=O)Nc4ccccc43)[C@H]2C1=O` are 11% and -1.8.
For the molecule `CC(C)(C)OC(=O)N1CCC(Cn2nccc2N)CC1`, the “% Inhibition” value was 30% and the Z score is -4.31.
With `Cc1csc(N(C)C(=O)c2ccc(OC3CCOCC3)cc2)n1`, the “% Inhibition” value is -11% and the Z score is 1.75.
In the same order, the values of `CCc1nc2c(c(NCCCc3c(C)noc3C)n1)CCNCC2` are -1% and 0.21.
Consider `Cc1ccc(-c2nnc3ccc4nnc(C)n4n23)c(C)c1F`, for which the “% Inhibition” value is recorded as 1% and the Z score is -0.12.
The corresponding values for `Cc1ccc(O[C@H]2CCOC[C@H]2NC(=O)CCc2c(C)noc2C)cn1` are 6% and -0.82.
For `O=C(CCc1nc(CS(=O)(=O)c2ccccc2)no1)NC1CCCCC1`, the “% Inhibition” value stood at 0% and the Z score is reported as -0.06.
In the same order, the values of `O=C(c1cc(OCc2ccccc2)no1)N1CCOCC1` are -9% and 1.71.
The corresponding values for `CS(=O)(=O)N1CCC[C@H]1c1noc(CCC(=O)NCc2cccnc2)n1` are -9% and 1.06.
In the same order, the values of `O=c1c2ccccc2sn1-c1cccc(S(=O)(=O)N2CCCCCC2)c1` are -41% and 4.08.
With `Cn1nccc1CN1CCN(CC(=O)NC2(C#N)CCCCC2)CC1`, the “% Inhibition” value is given as 0% and the Z score is -0.02.
As for `O=C(c1cccnc1)N(CC1CCN(C2Cc3ccccc3C2)CC1)C[C@H]1CCCO1`, the “% Inhibition” value was -1% and the Z score is on record as 0.18.
`COc1ccc(CN(Cc2ccncc2)CC2CCN(C3CCN(C)CC3)CC2)c(F)c1`: the “% Inhibition” value was 88% and the Z score was -10.13.
As to `CC(C)c1cc(C(=O)N2CCC3(CC2)Cc2cn(nn2)CCCOc2ccc(cc2)CCNC3=O)on1`, the “% Inhibition” value is recorded as -6% and the Z score was 1.18.
The corresponding values for `O=C(Nc1ccccc1)c1ccc(Oc2ccc(S(=O)(=O)N3CCOCC3)cc2S(=O)(=O)N2CCOCC2)cc1` are 33% and -3.77.
In the same order, the values of `O=C(COc1ccc2c(c1)N=C(O)CC2)N1CCO[C@H](c2ccccc2)C1` are -19% and 2.78.
In the same order, the values of `CC(=O)N[C@H]1C[C@H]2CN(S(=O)(=O)c3ccccc3)CC(=O)N2C1` are -10% and 1.36.
`O=C(OCc1ccccc1F)[C@@H]1CCCN1C1CCCC1`: the “% Inhibition” value is -4% and the Z score was found to be 0.48.

By % Inhibition is commonly meant the change of the read-out against control, counted positive when it falls.
